From PubChem BioAssay (Tox21)
The shares of active, inactive and inconclusive entries below differ from those in the screen. For part of these data: Potencies of inconclusive entries are doubtful fits and often do not repeat. Activity calls are given as the source filed them. Unless noted, calls follow the shape of the dose curve; as a rule, active = well fitted curve in the direction sought with a large enough effect in the repeat runs; inconclusive = weak or mixed curves; inactive = no such curve, though single readings can be large; an effect the other way counts as inactive or inconclusive.

Experiments:
[1] = molecular target: Peroxisome proliferator-activated receptor gamma (Homo sapiens) (UniProt P37231); assay: qHTS assay to identify small molecule agonists of the peroxisome proliferator-activated receptor gamma (PPARg) signaling pathway (AID 743094; active = well fitted activation curve with a large enough effect in the signal ratio in the repeat runs, not every such curve was filed as active; inconclusive = weak or mixed curves, or effect the other way; inactive = no such curve, though single readings can be large or run the other way; the % refers to the signal ratio); conditions: HEK293H PPARg-UAS-bla, beta-lactamase FRET ratio, 17 h; activation: at 57 µM (top of the series) unless noted
Outline: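 Agonism was assessed in a beta-lactamase reporter system, HEK293H cells with a stably integrated UAS-bla construct under PPARg control; the 17 h treatment at 37C preceded a 1 h room-temperature FRET substrate read.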

[2] = molecular target: Peroxisome proliferator-activated receptor gamma (Homo sapiens) (UniProt P37231); assay: qHTS assay to identify small molecule antagonists of the peroxisome proliferator-activated receptor gamma (PPARg) signaling pathway (AID 743191; calls by dose curve; also: nearly all actives have a fitted effect of over 30% in size); conditions: HEK293H PPARg-UAS-bla, beta-lactamase ratio, antagonist, 17 h; ratio activity, negative = inhibition: at 62.6 µM (top of the series) unless noted
Outline: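 GeneBLAzer PPARg UAS-bla HEK293H cells, 5 h post-plating, exposed to compounds 17 h at 37C. LiveBLAzer B/G FRET substrate added for 1 h at room temperature; beta-lactamase reporter read by fluorescence intensity.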

[3] = qHTS assay to identify small molecule antagonists of the peroxisome proliferator-activated receptor gamma (PPARg) signaling pathway - cell viability counter screen (AID 743194); conditions: PPARg-bla HEK293H viability, CellTiter-Glo luminescence, 17 h, co-treated with 50 nM rosiglitazone; activity change, negative = cytotoxicity: at 62.6 µM (top of the series) unless noted; also: nearly all actives have a fitted effect of over 55% in size
Outline: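 Cytotoxicity counter screen in PPARg-bla HEK293H cells, same wells as reporter assay. Compounds plus 50 nM rosiglitazone (final) for 17 h at 37 C, then viability read by CellTiter-Glo luminescence.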

[4] = qHTS assay for small molecule agonists of the antioxidant response element (ARE) signaling pathway (AID 743202; active = well fitted activation curve with a large enough effect in the signal ratio in the repeat runs, not every such curve was filed as active; inconclusive = weak or mixed curves, or effect the other way; inactive = no such curve, though single readings can be large or run the other way; the % refers to the signal ratio); conditions: HepG2 ARE-bla reporter, beta-lactamase FRET, 16 h; activation: at 73.3 µM (top of the series) unless noted
Outline: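 HepG2 ARE-bla reporter line, 2,000 cells/well; 5 h preincubation 37 C/5% CO2; compound (DMSO) 16 h 37 C; B/G FRET substrate 2 h RT; fluorescence intensity.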

[5] = qHTS assay for small molecule agonists of the antioxidant response element (ARE) signaling pathway - cell viability counter screen (AID 743203; calls by dose curve; also: nearly all actives have a fitted effect of over 55% in size); conditions: ARE-bla HepG2 viability, CellTiter-Glo luminescence, 16 h; viability change, negative = cytotoxic: at 73.3 µM (top of the series)
Outline: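 ATP content via CellTiter-Glo luminescence served as the viability measure. Cells: ARE-bla HepG2, 2,000 per well. Exposure: 16 hrs, 37C/5% CO2.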

[6] = qHTS assay for small molecule activators of the heat shock response signaling pathway (AID 743210; active = well fitted activation curve with a large enough effect in the signal ratio in the repeat runs, with a control signal flat, not every such curve was filed as active; inconclusive = weak or mixed curves; the % refers to the signal ratio); conditions: HeLa HSE-bla reporter, beta-lactamase ratio, 5 h; activation: at 62.6 µM (top of the series)
Outline: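 Beta-lactamase reporter read-out: FRET substrate fluorescence after 2.5 h at RT, following 5 h compound treatment at 37 C of HeLa cells carrying HSE-driven bla reporter; quantitative HTS format.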

[7] = molecular target: Peroxisome proliferator-activated receptor delta (Homo sapiens) (UniProt Q03181); assay: qHTS assay to identify small molecule agonists of the peroxisome proliferator-activated receptor delta (PPARd) signaling pathway (AID 743212; calls by dose curve); conditions: HEK293H PPARd-UAS-bla, beta-lactamase FRET ratio, 17 h; activation: at 62.6 µM (top of the series) unless noted
Outline: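 Read-out: beta-lactamase FRET fluorescence after 2 h room-temperature incubation with LiveBLAzer B/G substrate. Cells were HEK293H carrying a UAS-bla reporter for PPARd, treated at 37 C with DMSO-dissolved compounds.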

[8] = molecular target: Peroxisome proliferator-activated receptor delta (Homo sapiens) (UniProt Q03181); assay: qHTS assay to identify small molecule antagonists of the peroxisome proliferator-activated receptor delta (PPARd) signaling pathway (AID 743215; active = well fitted inhibition curve with a large enough effect in the signal ratio in the repeat runs, not every such curve was filed as active; inconclusive = weak or mixed curves, or effect the other way; inactive = no such curve, though single readings can be large or run the other way; the % refers to the signal ratio;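 also: cells stimulated with agonist L165041 at 300 nM final during compound exposure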); conditions: HEK293H PPARd-UAS-bla, beta-lactamase FRET ratio, antagonist, 17 h; ratio activity, negative = inhibition: at 62 µM (top of the series) unless noted
Outline: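 Here, a reporter line (HEK293H, beta-lactamase under a UAS) measures PPARd signaling. Compounds are tested against agonist L165041 at 300 nM final concentration over 17 h at 37 C, with fluorescence read after substrate.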

[9] = molecular target: Bile acid receptor (Homo sapiens) (UniProt Q96RI1); assay: qHTS assay to identify small molecule antagonists of the farnesoid-X-receptor (FXR) signaling pathway (AID 743217; active = well fitted inhibition curve with a large enough effect in the signal ratio in the repeat runs, not every such curve was filed as active; inconclusive = weak or mixed curves, or effect the other way; inactive = no such curve, though single readings can be large or run the other way; the % refers to the signal ratio); conditions: HEK293T FXR-UAS-bla, beta-lactamase ratio, CDCA-stimulated, 16 h; activity change, negative = inhibition: at 62.6 µM (top of the series) unless noted
Outline: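 Test compounds are pin-transferred onto FXR-bla HEK 293T cells, then chenodeoxycholic acid is added at 50 uM final. After 16 h at 37 °C, LiveBLAzer B/G substrate is applied for 2 h at room temperature and fluorescence read.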

[10] = qHTS assay to identify small molecule agonists of the farnesoid-X-receptor (FXR) signaling pathway - cell viability counter screen (AID 743218); conditions: FXR-bla HEK293T viability, CellTiter-Glo luminescence, 16 h; viability change, negative = cytotoxic: at 62.6 µM (top of the series) unless noted; also: nearly all actives have a fitted effect of over 45% in size
Outline: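 Quantitative HTS counter screen measuring ATP-based viability via CellTiter-Glo luminescence in HEK 293T cells carrying a UAS-driven beta-lactamase reporter, after 16 h compound exposure at 37 C.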

[11] = qHTS assay to identify small molecule antagonists of the farnesoid-X-receptor (FXR) signaling pathway - cell viability counter screen (AID 743221; active = well fitted cell-killing curve with a large enough effect in the repeat runs, not every such curve was filed as active; inconclusive = weak or mixed curves, or effect the other way; inactive = no such curve, though single readings can be large or run the other way; also: nearly all actives have a fitted effect of over 50% in size); conditions: FXR-bla HEK293T viability, CellTiter-Glo luminescence, 16 h; activity change, negative = cytotoxicity: at 62.6 µM (top of the series)
Outline: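 After a 5 h settling period, FXR-bla HEK 293T cells receive compound and chenodeoxycholic acid (50 uM final) and incubate 16 h at 37 C; CellTiter-Glo luminescence, read after 30 min at room temperature, reports cell viability.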

[12] = molecular target: Vitamin D3 receptor (Homo sapiens) (UniProt P11473); assay: qHTS assay to identify small molecule agonists of the vitamin D receptor (VDR) signaling pathway (AID 743222; calls by dose curve; as to activation: % is scaled to controls: 0 for no effect and ±100 for the full control effect); conditions: HEK293T VDR-UAS-bla, beta-lactamase FRET ratio, 16 h; activation: at 63.5 µM (top of the series) unless noted
Outline: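 Tox21 cell reporter format: VDR-bla line, 16 h compound exposure in 5% CO2 at 37C, then fluorescence intensity after 2 h with LiveBLAzer B/G FRET substrate.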

[13] = molecular target: Vitamin D3 receptor (Homo sapiens) (UniProt P11473); assay: qHTS assay to identify small molecule antagonists of the vitamin D receptor (VDR) signaling pathway (AID 743223; active = well fitted inhibition curve with a large enough effect in the signal ratio in the repeat runs, not every such curve was filed as active; inconclusive = weak or mixed curves, or effect the other way; inactive = no such curve, though single readings can be large or run the other way; the % refers to the signal ratio); conditions: VDR-UAS-bla HEK293T, beta-lactamase FRET ratio, 16 h; activity change, negative = inhibition: at 61 µM (top of the series) unless noted
Outline: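 Reporter line VDR-bla; stimulus 1alpha,25-(OH)2 vitamin D3, 3 nM final; compound co-addition, 16 h 37C/5% CO2; LiveBLAzer B/G substrate 2 h RT; fluorescence intensity.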

[14] = qHTS assay to identify small molecule agonists of the vitamin D receptor (VDR) signaling pathway - cell viability counter screen (AID 743224); conditions: VDR-bla HEK293T viability, CellTiter-Glo luminescence, 16 h; activity change, negative = cytotoxicity: at 62.6 µM (top of the series) unless noted; also: nearly all actives have a fitted effect of over 50% in size
Outline: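 CellTiter-Glo viability readout on VDR-bla cells, measured after 16 h of compound treatment at 37C in the same wells.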

[15] = qHTS assay for small molecule activators of the heat shock response signaling pathway - cell viability counter screen (AID 743209); conditions: HSE-bla HeLa viability, CellTiter-Glo luminescence, 5 h; activity change, negative = cytotoxicity: at 62.6 µM (top of the series) unless noted; also: nearly all actives have a fitted effect of over 50% in size
Outline: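 Compounds dissolved in DMSO were added to overnight-plated HSE-bla HeLa cells and left 5 h at 37 C. Cell viability was quantified by luminescence using CellTiter-Glo.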

[16] = qHTS assay to identify small molecule antagonists of the peroxisome proliferator-activated receptor delta (PPARd) signaling pathway - cell viability counter screen (AID 743213); conditions: PPARd-bla HEK293H viability, CellTiter-Glo luminescence, 17 h; viability change, negative = cytotoxic: at 62 µM (top of the series) unless noted; also: nearly all actives have a fitted effect of over 50% in size
Outline: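 In this counter screen, HEK293H cells carrying a UAS-beta-lactamase reporter are co-treated with test compounds and 300 nM L165041 (final) for 17 h at 37 C; cell viability is quantified by CellTiter-Glo luminescence.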

[17] = molecular target: Bile acid receptor (Homo sapiens) (UniProt Q96RI1); assay: qHTS assay to identify small molecule agonists of the farnesoid-X-receptor (FXR) signaling pathway (AID 743220; active = well fitted activation curve with a large enough effect in the signal ratio in the repeat runs, not every such curve was filed as active; inconclusive = weak or mixed curves, or effect the other way; the % refers to the signal ratio); conditions: HEK293T FXR-UAS-bla, beta-lactamase FRET ratio, 16 h; activation: at 62.6 µM (top of the series) unless noted
Outline: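 FXR-UAS-bla HEK 293T cells carrying a UAS-driven beta-lactamase reporter were plated for 5 h at 37C/5% CO2, then exposed to DMSO-dissolved Tox21 10K compounds for 16 h at 37C. A LiveBLAzer B/G FRET substrate was loaded for 2 h at room temperature before fluorescence reading.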

[18] = qHTS assay to identify small molecule agonists of the peroxisome proliferator-activated receptor delta (PPARd) signaling pathway - cell viability counter screen (AID 743211); conditions: PPARd-bla HEK293H viability, CellTiter-Glo luminescence, 17 h; activity change, negative = cytotoxicity: at 62.6 µM (top of the series); also: nearly all actives have a fitted effect of over 55% in size
Outline: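 qHTS cell viability: PPARd-bla HEK293H; 17 h cpd, 37C; CellTiter-Glo, luminescence at 30 min RT.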

[19] = qHTS assay to identify small molecule antagonists of the vitamin D receptor (VDR) signaling pathway - cell viability counter screen (AID 743225); conditions: VDR-bla HEK293T viability, CellTiter-Glo luminescence, 16 h; viability change, negative = cytotoxic: at 61 µM (top of the series) unless noted; also: nearly all actives have a fitted effect of over 50% in size
Outline: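 Parallel cytotoxicity test: VDR-UAS-bla HEK 293T, 3 nM (final) 1-alpha,25-dihydroxyvitamin D3 with test compound, 16 h, 37C. Endpoint is CellTiter-Glo luminescence in the same wells.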
Potency is read from the fitted curve at half-maximal effect; tags tell the direction and shape of the fitted curve or compound fluorescence and quenching.

Chain of UniProt P37231 (P37231 whole entry, looked up): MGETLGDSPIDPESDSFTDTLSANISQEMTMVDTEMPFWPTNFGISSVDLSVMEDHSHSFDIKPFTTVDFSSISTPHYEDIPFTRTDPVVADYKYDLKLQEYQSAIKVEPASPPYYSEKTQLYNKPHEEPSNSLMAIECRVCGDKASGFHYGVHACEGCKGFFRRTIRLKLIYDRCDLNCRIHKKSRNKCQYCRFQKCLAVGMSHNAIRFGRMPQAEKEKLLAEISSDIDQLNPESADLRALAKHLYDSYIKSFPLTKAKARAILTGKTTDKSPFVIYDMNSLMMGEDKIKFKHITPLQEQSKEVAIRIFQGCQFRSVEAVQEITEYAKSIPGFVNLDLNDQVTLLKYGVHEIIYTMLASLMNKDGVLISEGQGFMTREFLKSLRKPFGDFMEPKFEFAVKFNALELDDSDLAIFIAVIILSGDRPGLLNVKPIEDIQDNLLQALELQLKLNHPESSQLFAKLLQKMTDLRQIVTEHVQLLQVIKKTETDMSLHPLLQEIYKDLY
Chain of UniProt Q03181 (Q03181 whole entry, looked up): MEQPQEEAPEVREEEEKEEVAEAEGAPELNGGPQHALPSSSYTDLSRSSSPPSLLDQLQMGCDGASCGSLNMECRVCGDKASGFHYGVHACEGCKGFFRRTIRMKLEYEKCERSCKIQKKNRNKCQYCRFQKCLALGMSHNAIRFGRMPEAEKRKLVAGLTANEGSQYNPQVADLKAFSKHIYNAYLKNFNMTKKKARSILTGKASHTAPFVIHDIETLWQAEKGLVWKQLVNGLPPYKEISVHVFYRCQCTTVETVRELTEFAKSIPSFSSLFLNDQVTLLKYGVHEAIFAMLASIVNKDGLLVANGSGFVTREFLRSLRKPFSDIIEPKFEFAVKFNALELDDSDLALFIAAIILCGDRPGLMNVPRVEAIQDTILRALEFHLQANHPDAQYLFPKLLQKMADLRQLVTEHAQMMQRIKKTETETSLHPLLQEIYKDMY
Chain of UniProt P11473 (P11473 whole entry, looked up): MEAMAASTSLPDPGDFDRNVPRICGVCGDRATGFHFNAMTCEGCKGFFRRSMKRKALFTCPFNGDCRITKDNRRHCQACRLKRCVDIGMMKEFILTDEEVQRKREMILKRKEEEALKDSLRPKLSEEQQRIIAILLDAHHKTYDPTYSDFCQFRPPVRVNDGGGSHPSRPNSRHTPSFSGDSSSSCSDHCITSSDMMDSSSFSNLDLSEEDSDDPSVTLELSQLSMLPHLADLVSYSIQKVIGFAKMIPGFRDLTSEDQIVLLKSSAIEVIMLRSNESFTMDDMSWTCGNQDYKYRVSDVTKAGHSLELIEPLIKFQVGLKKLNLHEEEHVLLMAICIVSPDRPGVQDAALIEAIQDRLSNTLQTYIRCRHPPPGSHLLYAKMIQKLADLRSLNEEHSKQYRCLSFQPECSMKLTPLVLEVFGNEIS
Chain of UniProt Q96RI1 (Q96RI1 whole entry, looked up): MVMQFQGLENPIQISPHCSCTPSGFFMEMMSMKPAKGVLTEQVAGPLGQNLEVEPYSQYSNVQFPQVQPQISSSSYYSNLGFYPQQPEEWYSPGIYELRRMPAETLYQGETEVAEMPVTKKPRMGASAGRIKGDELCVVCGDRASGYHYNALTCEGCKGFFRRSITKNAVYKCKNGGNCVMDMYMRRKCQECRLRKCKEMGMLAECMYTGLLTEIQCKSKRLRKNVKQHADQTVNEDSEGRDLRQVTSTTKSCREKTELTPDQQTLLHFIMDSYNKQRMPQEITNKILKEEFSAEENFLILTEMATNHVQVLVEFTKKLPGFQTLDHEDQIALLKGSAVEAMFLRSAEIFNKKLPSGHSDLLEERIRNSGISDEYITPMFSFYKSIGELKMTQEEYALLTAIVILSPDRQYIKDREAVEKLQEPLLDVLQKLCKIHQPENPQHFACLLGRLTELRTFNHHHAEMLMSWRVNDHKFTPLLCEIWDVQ

CC/C(=C(\c1ccc(O)cc1)c1ccc(OCCN(C)C)cc1)c1ccccc1
inconclusive: Potency [1] 61.8 µM [single point] | Potency [2] 69.4 µM [cytotoxic, single point] | Potency [4] 17.3 µM [falling, full curve] | Potency [6] 45.5 µM | Potency [7] 34.8 µM [falling, partial curve] | Potency [8] 61.8 µM [cytotoxic, single point] | Potency [9] 69.4 µM [cytotoxic, single point] | activation [12] 37.8% [at 81.1 µM] | Potency [13] 55.1 µM [cytotoxic, single point]
active: Potency [3] 17.4 µM | Potency [5] 15.4 µM | Potency [10] 15.5 µM | Potency [11] 24.6 µM | Potency [14] 17.4 µM

CCCCCCCC/C=C/CCCCCCCC1=NCCN1CCO
inconclusive: Potency [1] 61.6 µM [single point] | Potency [2] 61.6 µM [cytotoxic, single point] | Potency [4] 24.3 µM [falling, full curve] | Potency [6] 45.3 µM | Potency [7] 61.6 µM [single point] | Potency [8] 30.9 µM [rising, partial curve, poor fit] | Potency [17] 38.9 µM [cytotoxic, partial curve, poor fit] | Potency [11] 54.9 µM [falling, single point] | Potency [12] 61.6 µM [falling, single point] | Potency [13] 24.5 µM [fluorescent, partial curve]
active: Potency [3] 43.6 µM | Potency [15] 19.5 µM | Potency [16] 49 µM | Potency [9] 54.9 µM | Potency [10] 21.9 µM

CCCC(c1cc(C(C)(C)C)c(O)cc1C)c1cc(C(C)(C)C)c(O)cc1C
active: Potency [3] 17.6 µM | Potency [5] 17.4 µM | Potency [18] 11.1 µM | Potency [16] 19.7 µM | Potency [10] 12.5 µM | Potency [11] 19.7 µM | Potency [19] 14 µM
inconclusive: Potency [1] 24.8 µM [full curve] | Potency [2] 49.6 µM [falling, partial curve] | Potency [4] 55.1 µM [falling, partial curve] | Potency [6] 11.5 µM | Potency [9] 35.1 µM [cytotoxic, partial curve] | Potency [17] 22.1 µM [falling, full curve]
